The list shows a part of the results. Sequences were assembled here from the parent chain. Inactive controls read about 0.05.
B1: TEV protease; numbered along this chain (parent)
chain: MGESLFKGPRDYNPISSSICHLTNESDGHTTSLYGIGFGPFIITNKHLFRRNNGTLVVQSLHGVFKVKDTTTLQQHLVDGRDMIIIRMPKDFPPFPQKLKFREPQREERICLVTTNFQTKSMSSMVSDTSCTFPSGDGIFWKHWIQTKDGQCGSPLVSTRDGFIVGIHSASNFTNTNNYFTSVPKNFMELLTNQEAQQWVSGWRLNADSVLWGGHKVFMVKPEEPFQPVKEATQL

Variants of: B1
Assay: raw area under fraction-flipped curve 0-4 h after induction (AUC4h, not background-subtracted), DNA-recorder readout of cleavage of the substrate (dimensionless); higher = more cleavage of the substrate by the protease variant
Settings: temperature: 34 °C; time window: 0-4 h after rhamnose induction
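Also: Bxb1 expression induced with 0.2% (w/v) L-rhamnose at OD600 near 0.5, cultures sampled hourly, flipped fraction per protease–substrate barcode pair counted by paired-end Illumina sequencing.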

Row | Variant | area with substrate EELYFQS | area with substrate EFLYFQS | area with substrate EHLYFQS | area with substrate EILYFQS | area with substrate EKLYFQS | area with substrate EQLYFQS | area with substrate ERLYFQS | area with substrate ESLYFQS | area with substrate EVLYFQS | area with substrate EWLYFQS
1 | G63K | 0.0811 | 0.0879 | 0.117 | 0.104 | 0.0778 | 0.107 | 0.121 | 0.0757 | 0.0943 | 0.092
2 | E195G | 0.121 | – | 0.114 | – | – | 0.0999 | – | – | 0.0941 | 0.0888
3 | C131R | 0.109 | – | 0.1 | 0.0825 | 0.0956 | – | – | 0.086 | 0.119 | –
4 | Q151F | – | – | – | – | – | – | – | 0.0708 | – | –
5 | G213N | 0.0758 | – | – | 0.11 | – | – | – | 0.0713 | – | –
6 | F187T | – | 0.0862 | – | – | 0.0982 | – | – | 0.0959 | 0.0716 | 0.0834
7 | D149H | – | 0.115 | – | 0.0754 | 0.0763 | 0.0849 | – | 0.064 | – | 0.0785
8 | P93Q | 0.113 | 0.122 | 0.105 | – | – | – | 0.121 | – | – | –
9 | F140H | 0.0355 | – | – | – | – | – | 0.0726 | 0.0825 | – | 0.0637
10 | N193E | 0.0942 | – | – | 0.0819 | 0.102 | 0.102 | 0.095 | 0.0874 | – | 0.0739
11 | H143M | 0.0607 | – | 0.0743 | – | 0.0709 | – | 0.0756 | 0.0664 | – | 0.0804
12 | D128P | – | 0.127 | – | 0.0915 | – | – | 0.12 | 0.129 | – | 0.106
13 | T174H | 0.101 | – | 0.117 | 0.0748 | – | 0.099 | – | 0.0929 | 0.0982 | 0.0687
14 | K7E | – | – | 0.173 | – | – | 0.103 | 0.1 | – | 0.0956 | –
15 | R87K | – | – | – | 0.106 | – | – | 0.19 | – | – | –
16 | R87G | – | – | – | – | – | – | 0.0799 | 0.0786 | 0.0828 | –
17 | T129M | 0.119 | 0.1 | – | 0.134 | 0.0776 | – | – | 0.0852 | 0.0718 | –
18 | C111R | 0.159 | – | – | 0.101 | 0.0609 | – | 0.127 | 0.114 | – | –
19 | S121C | – | 0.107 | 0.133 | 0.113 | 0.127 | 0.12 | 0.0984 | 0.115 | 0.0979 | –
20 | M88K | 0.0473 | – | – | – | – | 0.089 | 0.0775 | 0.0665 | 0.0711 | 0.0692
21 | T159F | 0.14 | – | – | – | 0.0966 | – | – | 0.0638 | – | 0.0953

Row | Variant | area with substrate EELYFQS | area with substrate EFLYFQS | area with substrate EHLYFQS | area with substrate EILYFQS | area with substrate EKLYFQS | area with substrate EQLYFQS | area with substrate ERLYFQS | area with substrate ESLYFQS | area with substrate EVLYFQS | area with substrate EWLYFQS
22 | F218A | 0.112 | – | – | – | – | 0.101 | 0.0836 | 0.0825 | 0.0822 | –
23 | F218T | 0.183 | – | – | 0.0828 | – | 0.0806 | – | 0.0929 | 0.098 | –
24 | F218D | 0.0913 | – | 0.0934 | 0.0524 | – | – | – | 0.074 | 0.0728 | –
25 | K221A | – | – | – | 0.086 | 0.111 | 0.128 | – | 0.0916 | – | 0.117
26 | P228D | 0.108 | 0.106 | – | – | 0.0907 | – | – | 0.115 | 0.117 | –
27 | Y34K | – | 0.107 | – | 0.0817 | – | – | – | 0.081 | – | –
28 | M188I | 0.163 | 0.115 | – | 0.075 | 0.134 | 0.116 | – | 0.125 | 0.0853 | 0.0993
29 | Q59T | 0.117 | 0.1 | 0.104 | 0.0804 | – | – | – | – | 0.0935 | 0.109
30 | L61V | 0.123 | – | 0.115 | 0.0846 | – | 0.124 | 0.078 | 0.111 | – | –
31 | L61Q | 0.122 | – | 0.101 | 0.0985 | 0.103 | 0.116 | – | 0.0991 | – | 0.0867
32 | Q197E | – | – | 0.0762 | 0.075 | 0.118 | – | – | 0.0918 | 0.098 | 0.0687
33 | Q197N | 0.123 | – | – | – | – | 0.0673 | – | 0.0561 | – | 0.11
34 | L73F | 0.0725 | – | – | 0.0619 | 0.0763 | 0.0761 | – | – | – | 0.0566
35 | R106L | 0.143 | – | – | – | – | 0.128 | – | – | – | –
36 | I84Q | 0.0732 | – | – | 0.0662 | – | 0.0957 | – | 0.0846 | 0.0665 | –
37 | L235G | 0.126 | 0.0966 | 0.114 | 0.0811 | 0.107 | 0.0932 | – | 0.102 | – | –
38 | L235N | 0.128 | – | – | 0.105 | 0.0984 | – | 0.12 | – | – | 0.0844
39 | L235I | – | – | 0.186 | 0.0778 | 0.113 | – | – | – | 0.0748 | –
40 | G153E | – | 0.0454 | 0.0551 | – | 0.0487 | 0.0689 | 0.0582 | 0.0668 | – | –
41 | G153W | 0.0409 | 0.0547 | – | – | – | – | 0.0528 | 0.0529 | 0.0802 | –
42 | P222R | 0.127 | 0.1 | – | 0.0601 | – | 0.0933 | 0.0825 | 0.0874 | 0.0674 | –

Same assay, conditions: temperature: 34 °C; time window: 0-4 h after rhamnose induction

Row | Variant | area with substrate EDLYFQS | area with substrate EGLYFQS | area with substrate ELLYFQS | area with substrate EMLYFQS | area with substrate EPLYFQS | area with substrate EYLYFQS | area with substrate ETLYFQS
43 | E195G | 0.117 | – | – | – | – | – | –
44 | C131R | – | 0.0951 | 0.0944 | 0.098 | 0.107 | 0.0733 | –
45 | Q151F | 0.103 | – | – | 0.0806 | – | – | –
46 | G213N | – | – | 0.0676 | 0.0722 | – | – | –
47 | F187T | 0.12 | – | 0.0517 | – | – | – | 0.102
48 | D149H | 0.141 | – | – | 0.0713 | 0.0711 | 0.0809 | –
49 | P93Q | – | – | – | 0.162 | – | – | –
50 | F140H | – | 0.0705 | 0.0647 | 0.0751 | 0.0654 | – | 0.0453
51 | N193E | 0.0937 | 0.0714 | 0.0635 | 0.093 | – | – | –
52 | H143M | 0.0842 | – | 0.0506 | – | 0.0672 | 0.0604 | 0.0771
53 | D128P | 0.119 | – | – | – | – | – | –
54 | T174H | 0.0949 | 0.0729 | – | 0.0998 | 0.0822 | 0.0827 | –
55 | K7E | – | 0.0987 | – | – | – | – | –
56 | R87K | – | 0.127 | – | – | – | 0.111 | –
57 | R87G | – | 0.0829 | 0.0797 | – | – | – | –
58 | C111R | – | 0.0858 | – | – | – | – | 0.101
59 | S121C | – | 0.087 | 0.0832 | 0.14 | – | – | 0.113
60 | M88K | – | – | – | 0.0735 | 0.0803 | – | –
61 | T159F | – | – | 0.0739 | – | – | – | –
62 | F218A | 0.09 | 0.08 | 0.0917 | 0.0967 | – | – | –

Row | Variant | area with substrate EDLYFQS | area with substrate EGLYFQS | area with substrate ELLYFQS | area with substrate EMLYFQS | area with substrate EPLYFQS | area with substrate EYLYFQS | area with substrate ETLYFQS
63 | F218T | – | 0.0254 | – | – | – | – | 0.109
64 | F218D | 0.112 | – | – | – | 0.106 | 0.0696 | –
65 | K221A | 0.103 | – | 0.0696 | – | – | – | –
66 | P228D | – | – | 0.101 | 0.0948 | – | – | –
67 | Y34K | – | 0.0874 | – | 0.106 | – | – | –
68 | Y34W | – | 0.0747 | – | – | – | – | –
69 | M188I | – | 0.108 | – | 0.146 | – | 0.206 | 0.13
70 | Q59T | – | – | 0.116 | 0.143 | – | – | –
71 | L61V | – | 0.126 | – | – | – | – | –
72 | L61Q | – | – | 0.085 | – | 0.11 | 0.13 | –
73 | Q197E | 0.0882 | 0.0744 | 0.0907 | 0.0861 | 0.089 | 0.075 | 0.0748
74 | Q197N | – | 0.0572 | 0.0875 | 0.138 | – | 0.0715 | –
75 | L73F | – | – | – | 0.0703 | 0.0798 | – | 0.0741
76 | R106L | 0.179 | – | – | – | 0.155 | – | –
77 | L235G | – | 0.0706 | 0.0909 | 0.126 | – | – | –
78 | L235N | – | 0.0824 | – | – | 0.0906 | – | –
79 | L235I | 0.108 | 0.0792 | – | – | 0.134 | – | –
80 | G153E | – | – | – | 0.041 | – | – | –
81 | P222R | – | 0.069 | – | 0.0832 | – | 0.105 | –
